Measurements reported in the supplement of paper PMC4967469.
pIC50: −log10 of the molar value. By IC50 is meant the dose at which the fit gives 50% viability; fits outside the tested doses are given as limits. AUC is the area under the same curve over the 256-fold range up to the top dose, as a fraction: 1 means no effect, lower means more sensitive. For some assays here: A top dose marked as inferred is not printed in the source and was worked back from the curve model. For some assays here: Where an entry number is given, a second screen of the drug exists; the two often differ.

Assays:
Experiment in all cases: Viability of human cancer cell lines after 72 h of drug (GDSC screen)
AS601245 = compound: N#CC(c1ccnc(NCCc2cccnc2)n1)c1nc2ccccc2s1 [AS601245]; conditions: top dose 8 µM; top dose inferred
Procedure: (§1)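 Human cancer cell lines in 384-well plates, medium with 10% serum, drug for 72 h over a 256-fold dose range (nine 2-fold or five 4-fold steps up to the top dose). Adherent lines were fixed and stained with the nucleic acid dye Syto60, suspension lines read with resazurin; signal relative to control wells, capped at 0 and 100%. One two-parameter sigmoid per drug and line, fitted in a mixed model over all curves with the slope shared within a line.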

AZD6244 = compound: Cn1cnc2c(F)c(Nc3ccc(Br)cc3Cl)c(C(=O)NOCCO)cc21 [AZD6244]; conditions: top dose 4 µM; screen: GDSC drug entry 1498; top dose inferred
Procedure: as §1

YM201636 = compound: Nc1ccc(C(=O)Nc2cccc(-c3nc(N4CCOCC4)c4oc5ncccc5c4n3)c2)cn1 [YM201636]; conditions: top dose 5.12 µM; top dose inferred
Procedure: as §1

EX-527 = compound: NC(=O)C1CCCc2c1[nH]c1ccc(Cl)cc21 [EX-527]; conditions: top dose 20 µM
Procedure: as §1

| Cell Line | AUC (AS601245) | pIC50 (AS601245) | AUC (AZD6244) | pIC50 (AZD6244) | AUC (YM201636) | pIC50 (YM201636) | AUC (EX-527) | pIC50 (EX-527) |
| --- | --- | --- | --- | --- | --- | --- | --- | --- |
| ME-180 (cervix, adherent) | 0.951 | < 5.10 | 0.876 | < 5.40 | 0.836 | 5.44 | 0.985 | < 4.70 |
| MEL-JUSO (melanoma, adherent) | 0.741 | 5.57 | 0.592 | 6.34 | 0.931 | < 5.29 | 0.982 | < 4.70 |
| MES-SA (uterus, adherent) | 0.869 | 5.25 | 0.965 | < 5.40 | 0.992 | < 5.29 | 0.99 | < 4.70 |
| MFE-280 (endometrium, adherent) | 0.944 | < 5.10 | 0.98 | < 5.40 | 0.805 | 5.46 | 0.947 | < 4.70 |
| MFE-296 (endometrium, adherent) | 0.79 | 5.41 | 0.957 | < 5.40 | 0.935 | < 5.29 | 0.979 | < 4.70 |
| MFE-319 (endometrium, adherent) | 0.677 | 5.81 | 0.919 | < 5.40 | 0.953 | < 5.29 | 0.989 | < 4.70 |
| MG-63 (osteosarcoma, adherent) | 0.777 | 5.43 | 0.845 | 5.44 | 0.984 | < 5.29 | 0.979 | < 4.70 |
| MHH-ES-1 (Ewing sarcoma, adherent) | 0.831 | 5.30 | 0.961 | < 5.40 | 0.647 | 6.09 | 0.985 | < 4.70 |
| MIA-PaCa-2 (pancreas, adherent) | 0.611 | 5.98 | 0.782 | 5.74 | 0.975 | < 5.29 | 0.984 | < 4.70 |
| MKN1 (stomach, adherent) | 0.759 | 5.53 | 0.894 | < 5.40 | 0.943 | < 5.29 | 0.985 | < 4.70 |
| MKN45 (stomach, adherent) | 0.893 | < 5.10 | 0.903 | < 5.40 | 0.929 | < 5.29 | 0.98 | < 4.70 |
| ML-1 (thyroid, adherent) | 0.692 | 5.72 | 0.893 | < 5.40 | 0.882 | < 5.29 | 0.984 | < 4.70 |
| MOG-G-CCM (glioma, adherent) | 0.816 | 5.27 | 0.948 | < 5.40 | 0.851 | 5.30 | 0.973 | < 4.70 |
| MOG-G-UVW (glioma, adherent) | 0.853 | 5.22 | 0.894 | < 5.40 | 0.956 | < 5.29 | 0.985 | < 4.70 |
| MS751 (cervix, adherent) | 0.878 | 5.15 | 0.916 | < 5.40 | 0.978 | < 5.29 | 0.99 | < 4.70 |
| Mewo (melanoma, adherent) | 0.941 | < 5.10 | 0.768 | 5.75 | 0.973 | < 5.29 | 0.979 | < 4.70 |
| NCI-H23 (lung adenocarcinoma, adherent) | 0.954 | < 5.10 | 0.956 | < 5.40 | 0.946 | < 5.29 | 0.987 | < 4.70 |
| NCI-H28 (mesothelioma, adherent) | 0.777 | 5.37 | 0.911 | < 5.40 | 0.939 | < 5.29 | 0.981 | < 4.70 |
| NCI-H196 (small cell lung carcinoma, adherent) | 0.959 | < 5.10 | 0.98 | < 5.40 | 0.945 | < 5.29 | 0.988 | < 4.70 |
| NCI-H292 (lung adenocarcinoma, adherent) | 0.942 | < 5.10 | 0.306 | 7.20 | 0.788 | 5.56 | 0.979 | < 4.70 |

| Cell Line | AUC (AS601245) | pIC50 (AS601245) | AUC (AZD6244) | pIC50 (AZD6244) | AUC (YM201636) | pIC50 (YM201636) | AUC (EX-527) | pIC50 (EX-527) |
| --- | --- | --- | --- | --- | --- | --- | --- | --- |
| NCI-H358 (lung adenocarcinoma, adherent) | 0.691 | 5.74 | 0.817 | 5.59 | 0.891 | < 5.29 | 0.981 | < 4.70 |
| NCI-H441 (lung adenocarcinoma, adherent) | 0.764 | 5.38 | 0.761 | 5.70 | 0.943 | < 5.29 | 0.98 | < 4.70 |
| NCI-H520 (lung squamous cell carcinoma, adherent) | 0.868 | 5.11 | 0.986 | < 5.40 | 0.665 | 6.03 | 0.981 | < 4.70 |
| NCI-H522 (lung adenocarcinoma, adherent) | 0.826 | 5.21 | 0.91 | < 5.40 | 0.854 | < 5.29 | 0.982 | < 4.70 |
| NCI-H596 (lung adenocarcinoma, adherent) | 0.885 | < 5.10 | 0.915 | < 5.40 | 0.923 | < 5.29 | 0.982 | < 4.70 |
| NCI-H647 (non-small cell lung carcinoma, adherent) | 0.89 | < 5.10 | 0.897 | < 5.40 | 0.835 | 5.44 | 0.985 | < 4.70 |
| NCI-H650 (lung adenocarcinoma, adherent) | 0.931 | < 5.10 | 0.93 | < 5.40 | 0.946 | < 5.29 | 0.981 | < 4.70 |
| NCI-H661 (large cell lung carcinoma, adherent) | 0.88 | < 5.10 | 0.928 | < 5.40 | 0.905 | < 5.29 | 0.972 | < 4.70 |
| NCI-H727 (lung carcinoid, adherent) | 0.588 | 5.99 | 0.555 | 6.41 | 0.907 | < 5.29 | 0.976 | < 4.70 |
| NCI-H810 (large cell lung carcinoma, adherent) | 0.775 | 5.52 | 0.985 | < 5.40 | 0.901 | < 5.29 | 0.984 | < 4.70 |
| NCI-H838 (lung adenocarcinoma, adherent) | 0.882 | < 5.10 | 0.927 | < 5.40 | 0.904 | < 5.29 | 0.981 | < 4.70 |
| NCI-H841 (small cell lung carcinoma, adherent) | 0.915 | < 5.10 | 0.975 | < 5.40 | 0.902 | < 5.29 | 0.987 | < 4.70 |
| NCI-H1048 (small cell lung carcinoma, adherent) | 0.926 | < 5.10 | 0.979 | < 5.40 | 0.73 | 5.88 | 0.984 | < 4.70 |
| NCI-H1435 (lung adenocarcinoma, semi-adherent) | 0.865 | 5.24 | 0.99 | < 5.40 | 0.975 | < 5.29 | 0.986 | < 4.70 |
| NCI-H1437 (lung adenocarcinoma, adherent) | 0.82 | 5.32 | 0.59 | 6.35 | 0.844 | 5.41 | 0.986 | < 4.70 |
| NCI-H1563 (lung adenocarcinoma, adherent) | 0.921 | < 5.10 | 0.969 | < 5.40 | 0.77 | 5.63 | 0.903 | < 4.70 |
| NCI-H1568 (lung adenocarcinoma, adherent) | 0.872 | < 5.10 | 0.863 | < 5.40 | 0.97 | < 5.29 | 0.981 | < 4.70 |
| NCI-H1573 (lung adenocarcinoma, adherent) | 0.976 | < 5.10 | 0.939 | < 5.40 | 0.928 | < 5.29 | 0.991 | < 4.70 |
| NCI-H1623 (lung adenocarcinoma, adherent) | 0.832 | 5.17 | 0.806 | 5.59 | 0.911 | < 5.29 | 0.985 | < 4.70 |
| NCI-H1651 (lung adenocarcinoma, adherent) | 0.893 | < 5.10 | 0.952 | < 5.40 | 0.986 | < 5.29 | 0.987 | < 4.70 |

| Cell Line | AUC (AS601245) | pIC50 (AS601245) | AUC (AZD6244) | pIC50 (AZD6244) | AUC (YM201636) | pIC50 (YM201636) | AUC (EX-527) | pIC50 (EX-527) |
| --- | --- | --- | --- | --- | --- | --- | --- | --- |
| NCI-H1688 (small cell lung carcinoma, adherent) | 0.87 | < 5.10 | 0.956 | < 5.40 | 0.613 | 6.17 | 0.985 | < 4.70 |
| NCI-H1693 (lung adenocarcinoma, adherent) | 0.957 | < 5.10 | 0.769 | 5.60 | 0.953 | < 5.29 | 0.969 | < 4.70 |
| NCI-H1703 (lung adenocarcinoma, adherent) | 0.881 | < 5.10 | 0.975 | < 5.40 | 0.903 | < 5.29 | 0.982 | < 4.70 |
| NCI-H1755 (lung adenocarcinoma, adherent) | 0.834 | 5.20 | 0.94 | < 5.40 | 0.658 | 6.02 | 0.889 | < 4.70 |
| NCI-H1781 (lung adenocarcinoma, adherent) | 0.866 | 5.15 | 0.978 | < 5.40 | 0.988 | < 5.29 | 0.989 | < 4.70 |
| NCI-H1792 (lung adenocarcinoma, adherent) | 0.915 | < 5.10 | 0.759 | 5.90 | 0.918 | < 5.29 | 0.99 | < 4.70 |
| NCI-H1793 (lung adenocarcinoma, adherent) | 0.895 | < 5.10 | 0.88 | < 5.40 | 0.968 | < 5.29 | 0.981 | < 4.70 |
| NCI-H1915 (large cell lung carcinoma, adherent) | 0.835 | 5.27 | 0.61 | 6.30 | 0.958 | < 5.29 | 0.986 | < 4.70 |
| NCI-H1944 (lung adenocarcinoma, adherent) | 0.787 | 5.43 | 0.599 | 6.32 | 0.805 | 5.55 | 0.984 | < 4.70 |
| NCI-H1993 (lung adenocarcinoma, adherent) | 0.978 | < 5.10 | 0.924 | < 5.40 | 0.847 | < 5.29 | 0.983 | < 4.70 |
| NCI-H2009 (lung adenocarcinoma, adherent) | 0.857 | 5.15 | 0.829 | 5.57 | 0.944 | < 5.29 | 0.976 | < 4.70 |
| NCI-H2029 (small cell lung carcinoma, adherent) | 0.983 | < 5.10 | 0.99 | < 5.40 | 0.965 | < 5.29 | 0.989 | < 4.70 |
| NCI-H2030 (lung adenocarcinoma, adherent) | 0.802 | 5.34 | 0.678 | 6.07 | 0.78 | 5.62 | 0.982 | < 4.70 |
| NCI-H2085 (lung adenocarcinoma, adherent) | 0.859 | 5.12 | 0.917 | < 5.40 | 0.884 | < 5.29 | 0.967 | < 4.70 |
| NCI-H2087 (lung adenocarcinoma, semi-adherent) | 0.807 | 5.35 | 0.66 | 6.14 | 0.936 | < 5.29 | 0.965 | < 4.70 |
| NCI-H2110 (non-small cell lung carcinoma, adherent) | 0.978 | < 5.10 | 0.897 | < 5.40 | 0.69 | 5.95 | 0.986 | < 4.70 |
| NCI-H2122 (lung adenocarcinoma, adherent) | 0.543 | 6.19 | 0.787 | 5.79 | 0.945 | < 5.29 | 0.975 | < 4.70 |
| NCI-H2170 (lung squamous cell carcinoma, adherent) | 0.772 | 5.49 | 0.985 | < 5.40 | 0.96 | < 5.29 | 0.986 | < 4.70 |
